# The list shows a part of the results.
# B1: BT3172pd (Bacteroides thetaiotaomicron) (protein)
# chain: MLPLRAEHYYYKQISLKEGLPSNVRCILRDEQGFIWIGTKAGLGKFDGHQLKRYKHQANDPHSLLHNLIYQIAEDKQHNIWILTEKGIARYQQQSNNFTFPTDEEGNYITAYSFCLVPDGILFGGKDRIYKYSYKDSSLRLLQYFNANSFKITALSVWDSKTLLCCSRWTGLYLVDLQTGEHRRPPFDCGPEITSMITDSKNRIWIAPYSGGLRCYSRDGKLSASYTTHNSSLSNDIVLSLAEREEQLWIGTDGGGINILHPETGEISQLEYIPGRENYSLPANSILCLHNDYNNNVWAGSTCNGLISIREVSMKTYTDVVPGNDRGLSNGTVRSLYRQSPDSIWIGTDGGGINLFSPHTEKFTHYSSTWGDKVAFISGFTPGKLLISLFSKGVFVFNPATGEKQPFTIIDKETTTRLCNRGKSVNLYQNTPNTVLFLGDHIYQYHLKEKKFSTITEEEGKDIVGTLVPFDHQENLTYINDIKHIYELDDQTSRLKTVFECYTDTVISSVSHDEQGHFWIGSNFGLIHYDPVLKSRTLVPTNLFTEINMVLCDQKGKVWIGVDNMLFAYFIKEQKFVLFGESNGAIQNEYLPNARLVNEQGDAYIGGVKGMLRIDGQLLLNTSEMPELQLLDITINGESANHEWYNHPAKISVPWNSNISIRIMSREEDIFRQKIYRYQIEGLNNEYTESYNPELVIRSLLPGSYRIMASCTAKDGSWIPDQQVLELTVLPPWYRTHHHHHH
# Key:
# Assay in all cases: glycan array binding signal (z-score within array); higher = stronger binding
# Conditions in all cases: glycan notation: IUPAC condensed, linker removed
# [1] = target: Fuc(a1-2)Gal6S(b1-3)GlcNAc6S
# Procedure, shortened: (§1)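 The Consortium for Functional Glycomics database supplied 3228 glycan arrays, of which those lacking an available protein sequence were dropped. The binding signal, a within-array Z-score, was averaged across arrays of the same protein sequence and across linkers. Negative scores can be read as non-binding.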
# [2] = target: Fuc(a1-2)Gal6S(b1-4)Glc
# Procedure, shortened: as §1
# [3] = target: Fuc(a1-2)Gal6S(b1-4)Glc6S
# Procedure, shortened: as §1
# [4] = target: Fuc(a1-2)[Gal(a1-3)]Gal
# Procedure, shortened: as §1
# [5] = target: Fuc(a1-2)[Gal(a1-3)]Gal(b1-3)GalNAc
# Procedure, shortened: as §1
# [6] = target: Fuc(a1-2)[Gal(a1-3)]Gal(b1-3)GalNAc(b1-3)Gal(a1-4)Gal(b1-4)Glc
# Procedure, shortened: as §1
# [7] = target: Fuc(a1-2)[Gal(a1-3)]Gal(b1-3)GlcNAc
# Procedure, shortened: as §1
# [8] = target: Fuc(a1-2)[Gal(a1-3)]Gal(b1-3)GlcNAc(b1-2)Man(a1-3)[Fuc(a1-2)[Gal(a1-3)]Gal(b1-3)GlcNAc(b1-2)Man(a1-6)]Man(b1-4)GlcNAc(b1-4)GlcNAc
# Procedure, shortened: as §1
# [9] = target: Fuc(a1-2)[Gal(a1-3)]Gal(b1-3)GlcNAc(b1-2)Man(a1-3)[Fuc(a1-2)[Gal(a1-3)]Gal(b1-3)GlcNAc(b1-2)Man(a1-6)]Man(b1-4)GlcNAc(b1-4)[Fuc(a1-6)]GlcNAc
# Procedure, shortened: as §1
# [10] = target: Fuc(a1-2)[Gal(a1-3)]Gal(b1-3)GlcNAc(b1-3)GalNAc
# Procedure, shortened: as §1
# [11] = target: Fuc(a1-2)[Gal(a1-3)]Gal(b1-3)GlcNAc(b1-6)GalNAc
# Procedure, shortened: as §1
# [12] = target: Fuc(a1-2)[Gal(a1-3)]Gal(b1-4)Glc
# Procedure, shortened: as §1
# [13] = target: Fuc(a1-2)[Gal(a1-3)]Gal(b1-4)GlcNAc
# Procedure, shortened: as §1
# [14] = target: Fuc(a1-2)[Gal(a1-3)]Gal(b1-4)GlcNAc(b1-2)Man
# Procedure, shortened: as §1
# [15] = target: Fuc(a1-2)[Gal(a1-3)]Gal(b1-4)GlcNAc(b1-2)Man(a1-3)[Fuc(a1-2)[Gal(a1-3)]Gal(b1-4)GlcNAc(b1-2)Man(a1-6)]Man(b1-4)GlcNAc(b1-4)GlcNAc
# Procedure, shortened: as §1
# [16] = target: Fuc(a1-2)[Gal(a1-3)]Gal(b1-4)GlcNAc(b1-2)Man(a1-3)[Fuc(a1-2)[Gal(a1-3)]Gal(b1-4)GlcNAc(b1-2)Man(a1-6)]Man(b1-4)GlcNAc(b1-4)[Fuc(a1-6)]GlcNAc
# Procedure, shortened: as §1
# [17] = target: Fuc(a1-2)[Gal(a1-3)]Gal(b1-4)GlcNAc(b1-3)GalNAc
# Procedure, shortened: as §1
# [18] = target: Fuc(a1-2)[Gal(a1-3)]Gal(b1-4)GlcNAc(b1-3)[Fuc(a1-2)[Gal(a1-3)]Gal(b1-4)GlcNAc(b1-6)]GalNAc
# Procedure, shortened: as §1
# [19] = target: Fuc(a1-2)[Gal(a1-3)]Gal(b1-4)GlcNAc(b1-6)GalNAc
# Procedure, shortened: as §1
# [20] = target: Fuc(a1-2)[Gal(a1-3)]Gal(b1-4)[Fuc(a1-3)]Glc
# Procedure, shortened: as §1
# [21] = target: Fuc(a1-2)[Gal(a1-3)]Gal(b1-4)[Fuc(a1-3)]GlcNAc
# Procedure, shortened: as §1
# [22] = target: Fuc(a1-2)[Gal(a1-3)]Gal(b1-4)[Fuc(a1-3)]GlcNAc(b1-3)GalNAc
# Procedure, shortened: as §1
# [23] = target: Fuc(a1-2)[Gal(a1-4)]Gal(b1-4)GlcNAc
# Procedure, shortened: as §1
# [24] = target: Fuc(a1-2)[GalNAc(a1-3)]Gal
# Procedure, shortened: as §1
# [25] = target: Fuc(a1-2)[GalNAc(a1-3)]Gal(b1-3)GalNAc(a1-3)[Fuc(a1-2)]Gal(b1-4)GlcNAc
# Procedure, shortened: as §1
# [26] = target: Fuc(a1-2)[GalNAc(a1-3)]Gal(b1-3)GalNAc(b1-3)Gal(a1-4)Gal(b1-4)Glc
# Procedure, shortened: as §1
# [27] = target: Fuc(a1-2)[GalNAc(a1-3)]Gal(b1-3)GlcNAc
# Procedure, shortened: as §1
# [28] = target: Fuc(a1-2)[GalNAc(a1-3)]Gal(b1-3)GlcNAc(b1-2)Man(a1-3)[Fuc(a1-2)[GalNAc(a1-3)]Gal(b1-3)GlcNAc(b1-2)Man(a1-6)]Man(b1-4)GlcNAc(b1-4)GlcNAc
# Procedure, shortened: as §1
# [29] = target: Fuc(a1-2)[GalNAc(a1-3)]Gal(b1-3)GlcNAc(b1-2)Man(a1-3)[Fuc(a1-2)[GalNAc(a1-3)]Gal(b1-3)GlcNAc(b1-2)Man(a1-6)]Man(b1-4)GlcNAc(b1-4)[Fuc(a1-6)]GlcNAc
# Procedure, shortened: as §1
# [30] = target: Fuc(a1-2)[GalNAc(a1-3)]Gal(b1-3)GlcNAc(b1-3)GalNAc
# Procedure, shortened: as §1
# [31] = target: Fuc(a1-2)[GalNAc(a1-3)]Gal(b1-3)GlcNAc(b1-6)GalNAc
# Procedure, shortened: as §1
# [32] = target: Fuc(a1-2)[GalNAc(a1-3)]Gal(b1-4)Glc
# Procedure, shortened: as §1
# [33] = target: Fuc(a1-2)[GalNAc(a1-3)]Gal(b1-4)GlcNAc
# Procedure, shortened: as §1
# [34] = target: Fuc(a1-2)[GalNAc(a1-3)]Gal(b1-4)GlcNAc(b1-2)Man
# Procedure, shortened: as §1
# [35] = target: Fuc(a1-2)[GalNAc(a1-3)]Gal(b1-4)GlcNAc(b1-2)Man(a1-3)[Fuc(a1-2)[GalNAc(a1-3)]Gal(b1-4)GlcNAc(b1-2)Man(a1-6)]Man(b1-4)GlcNAc(b1-4)GlcNAc
# Procedure, shortened: as §1
# [36] = target: Fuc(a1-2)[GalNAc(a1-3)]Gal(b1-4)GlcNAc(b1-2)Man(a1-3)[Fuc(a1-2)[GalNAc(a1-3)]Gal(b1-4)GlcNAc(b1-2)Man(a1-6)]Man(b1-4)GlcNAc(b1-4)[Fuc(a1-6)]GlcNAc
# Procedure, shortened: as §1
# [37] = target: Fuc(a1-2)[GalNAc(a1-3)]Gal(b1-4)GlcNAc(b1-3)Gal(b1-4)GlcNAc
# Procedure, shortened: as §1
# [38] = target: Fuc(a1-2)[GalNAc(a1-3)]Gal(b1-4)GlcNAc(b1-3)Gal(b1-4)GlcNAc(b1-3)Gal(b1-4)GlcNAc
# Procedure, shortened: as §1
# [39] = target: Fuc(a1-2)[GalNAc(a1-3)]Gal(b1-4)GlcNAc(b1-3)GalNAc
# Procedure, shortened: as §1
# [40] = target: Fuc(a1-2)[GalNAc(a1-3)]Gal(b1-4)GlcNAc(b1-3)[Fuc(a1-2)[GalNAc(a1-3)]Gal(b1-4)GlcNAc(b1-6)]GalNAc
# Procedure, shortened: as §1
# [41] = target: Fuc(a1-2)[GalNAc(a1-3)]Gal(b1-4)GlcNAc(b1-6)GalNAc
# Procedure, shortened: as §1
# [42] = target: Fuc(a1-2)[GalNAc(a1-3)]Gal(b1-4)[Fuc(a1-3)]GlcNAc
# Procedure, shortened: as §1
# [43] = target: Fuc(a1-2)[GalNAc(a1-3)]Gal(b1-4)[Fuc(a1-3)]GlcNAc(b1-3)GalNAc
# Procedure, shortened: as §1
# [44] = target: Fuc(a1-2)[GalNAc(a1-4)]Gal(b1-4)GlcNAc
# Procedure, shortened: as §1
# [45] = target: Fuc(a1-2)[GalNAc(b1-3)]Gal
# Procedure, shortened: as §1
binder,measurement,setting,value
B1,glycan array binding signal (z-score),[1],0.599
same,glycan array binding signal (z-score),[2],-0.035
same,glycan array binding signal (z-score),[3],-0.485
same,glycan array binding signal (z-score),[4],-0.373
same,glycan array binding signal (z-score),[5],0.258
same,glycan array binding signal (z-score),[6],0.134
same,glycan array binding signal (z-score),[7],-0.107
same,glycan array binding signal (z-score),[8],-1.02
same,glycan array binding signal (z-score),[9],-3.2
same,glycan array binding signal (z-score),[10],0.76
same,glycan array binding signal (z-score),[11],-0.035
same,glycan array binding signal (z-score),[12],0.216
same,glycan array binding signal (z-score),[13],-0.52
same,glycan array binding signal (z-score),[14],0.395
same,glycan array binding signal (z-score),[15],0.095
same,glycan array binding signal (z-score),[16],0.347
same,glycan array binding signal (z-score),[17],0.073
same,glycan array binding signal (z-score),[18],5.41
same,glycan array binding signal (z-score),[19],0.696
same,glycan array binding signal (z-score),[20],-0.351
same,glycan array binding signal (z-score),[21],-0.177
same,glycan array binding signal (z-score),[22],-0.194
same,glycan array binding signal (z-score),[23],-0.179
same,glycan array binding signal (z-score),[24],-0.426
same,glycan array binding signal (z-score),[25],-0.445
same,glycan array binding signal (z-score),[26],-0.219
same,glycan array binding signal (z-score),[27],-0.389
same,glycan array binding signal (z-score),[28],-0.51
same,glycan array binding signal (z-score),[29],-0.47
same,glycan array binding signal (z-score),[30],0.729
same,glycan array binding signal (z-score),[31],-0.21
same,glycan array binding signal (z-score),[32],-0.491
same,glycan array binding signal (z-score),[33],-0.511
same,glycan array binding signal (z-score),[34],-0.645
same,glycan array binding signal (z-score),[35],-0.17
same,glycan array binding signal (z-score),[36],-0.192
same,glycan array binding signal (z-score),[37],-0.68
same,glycan array binding signal (z-score),[38],-0.443
same,glycan array binding signal (z-score),[39],-0.142
same,glycan array binding signal (z-score),[40],-0.046
same,glycan array binding signal (z-score),[41],-0.622
same,glycan array binding signal (z-score),[42],-0.482
same,glycan array binding signal (z-score),[43],0.04
same,glycan array binding signal (z-score),[44],-0.521
same,glycan array binding signal (z-score),[45],-0.655

# Source: the supplement of paper PMC8728848
